Out of some 43,000 compounds screened, about 200 (0.47%) were called active. Not shown: some 12% with an inconclusive outcome. Calls follow the shape of the dose curve; as a rule, active = well fitted cell-killing curve with a large enough effect; inconclusive = small, poorly fitted or top-dose-only effect, or effect the other way; inactive = flat fitted curve, though single readings scatter. The list shows a part of the results.
Assay: Cell viability qHTS assay in S16 Pmp22-F2sN cells; also: nearly all actives have a fitted effect of over 65% in size
Details: S16 Pmp22-F2sN Schwann cells (luciferase reporters placed in the Pmp22 gene) viability, CellTiter-Glo, 24 h; series mostly up to 57.5 µM; activity change, negative = cytotoxicity: at the top concentration
Method in brief: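 Seed 500-1,000 S16 Pmp22-F2sN cells per well in phenol-red-free DMEM with 10% heat-inactivated FBS; pin-add 23 nL compound; incubate 24 h at 37C; add CellTiter-Glo, wait 15 min protected from light; read luminescence.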
% is scaled to controls: 0 for no effect and ±100 for the full control effect.

Row | Compound | activity change, negative = cytotoxicity
1 | Cc1cccc(NC(=O)N2CCC(CN3CCc4ccccc4C3)CC2)c1C | inactive: 0.356%
2 | CCOc1ccc(NC(=O)Cn2cc(C(=O)c3ccc(C)c(C)c3)c(=O)c3cc4c(cc32)OCCO4)cc1 | inactive: 3.74%
3 | O=C(CSC1=Nc2ccccc2C2=NC(Cc3ccccc3)C(=O)N12)Nc1ccccc1F (stereo unspecified) | inactive: -15.5%
4 | CCOC(=O)NC1(C(F)(F)F)NC(=O)N(c2ccc(C)c(C)c2)C1=O (stereo unspecified) | inactive: 0.724%
5 | COc1ccc(S(=O)(=O)NCCc2csc(-c3ccc(F)cc3)n2)cc1 | inactive: 2.23%
6 | Cc1cc(C)cc(OCC(=O)Nc2ccc(S(=O)(=O)Nc3onc(C)c3C)cc2)c1 | inactive: 6.76%
7 | CCOc1ccc(-c2nc(SCC(=O)NCCOC)c(-c3ccc(OC)c(OC)c3)[nH]2)cc1 | inactive: 1.22%
8 | CCc1ccc(-n2nc(C)c3c(C(=O)Nc4cc(OC)cc(OC)c4)cc(C)nc32)cc1 | inactive: -7.52%
9 | CSc1nc2sc3c(c2c(=O)n1-c1ccc(F)c(Cl)c1)CCN(C(C)=O)C3 | inactive: 12.7%
10 | Cc1cc(C)cc(NC(=O)CSc2nc(-c3cccc(Cl)c3)nc3c2Cc2c(CO)cnc(C)c2O3)c1 | inactive: -15.9%
11 | COc1ccc(CNC(=O)Cn2c(SCC(=O)Nc3ccc(C)c(C)c3)nc3ccccc32)cc1 | inactive: -29.1%
12 | Cc1nn(CC(=O)NCc2ccccc2Cl)c(=O)c2nn(-c3ccccc3)c(C)c12 | inactive: -5.47%
13 | Cc1ccccc1NC(=O)CSC1=Nc2ccccc2C2=NC(CCC(=O)NCc3ccccc3)C(=O)N12 (stereo unspecified) | inactive: -7%
14 | Cc1nc(CC(=O)Nc2ccc(N(C)C)cc2)cs1 | inactive: 5.61%
15 | COc1ccc(-n2nc(C(=O)Nc3cccc(C(F)(F)F)c3)c3c4ccccc4n(C)c3c2=O)cc1 | inactive: 7.94%
16 | O=C(NCc1cccc(Cl)c1)C1CCN(C(=O)c2sccc2-n2cccc2)CC1 | inactive: -6.29%
17 | CCc1ccc(C(=O)c2cn(CC(=O)Nc3ccc(OC)cc3OC)c3ccc(CC)cc3c2=O)cc1 | inactive: -0.7%
18 | CC(=O)N1CCC(N(C(=O)Nc2c(F)cccc2F)C(C)C)CC1 | inactive: -9.48%
19 | Cc1ccc(N(C)C(=O)c2cnc(N3CCOCC3)c3ccccc23)cc1C | inactive: -1.65%
20 | COc1cccc(C(=O)Nc2cccc(C(=O)OCc3cc(=O)n4nc(C(C)C)sc4n3)c2)c1 | inactive: 0.289%
21 | CC(NC(=O)CCSCc1ccccc1F)c1ccccc1 (stereo unspecified) | inactive: -4.03%

Row | Compound | activity change, negative = cytotoxicity
22 | O=C(c1ccc2c(c1)N(Cc1ccccc1F)C(=O)c1ccccc1S2(=O)=O)N1CCCC1 | inactive: 19%
23 | COc1ccc(-c2cc(-c3ccccc3)nc(SCC(=O)CC(=O)OC(C)C)c2C#N)cc1 | inactive: -24.7%
24 | COCCCNC(=O)c1c(NC(=O)Cc2coc3cc(C)cc(C)c23)sc2c1CCCC2 | inactive: -24.1%
25 | CCc1ccc(CNC(=O)CSc2cc(=O)n(C)c3ccc(Cl)cc23)cc1 | inactive: 18.1%
26 | CCN(CCCNC(=O)c1cc2c(=O)n(CC)c3ccccc3c2s1)c1ccccc1 | inactive: 12%
27 | Cc1ccc(-c2noc(-c3nnn(CC(=O)Nc4cc(C)cc(C)c4)c3N)n2)cc1 | inactive: 2.66%
28 | CCCNC(=O)CSc1nc2nc(C)c(Cc3ccccc3Cl)c(C)n2n1 | inactive: 5.52%
29 | COc1ccc(CCCc2nnc(SCC(=O)Nc3ccc(C)cc3C)o2)cc1 | inactive: 28.9%
30 | CCN(CC)S(=O)(=O)c1cc(-c2onc(C)c2C)ccc1OC | inactive: 0.751%
31 | COc1ccc(C(=O)N(Cc2cc(OC)c(OC)c(OC)c2)CC2CCCO2)cc1 (stereo unspecified) | inactive: 3.24%
32 | Cc1cc(F)ccc1NCc1ccccc1-c1nnc(-c2ccccc2Cl)o1 | inactive: 0.801%
33 | O=C(NCC(c1cccnc1)N1CCc2ccccc21)c1cccc(C(F)(F)F)c1 (stereo unspecified) | inactive: -25.4%
34 | COc1ccc(N2CCN(C(=O)c3nc(SC)ncc3Cl)CC2)cc1 | inactive: 4.43%
35 | CC(NC(=O)CCCn1c(=O)c2cccn2c2cccnc21)c1ccccc1 (stereo unspecified) | inactive: 0.777%
36 | Cc1coc2c(C)c3oc(=O)c(CCC(=O)NCCc4ccc(Cl)cc4)c(C)c3cc12 | inactive: -4.63%
37 | CC1=C(c2ccc(C)c(C)c2)S(=O)(=O)N=C1N1CCC(C(=O)NCc2ccc(C)o2)CC1 | inactive: 19.5%
38 | Cc1ccccc1OCCn1c(CCNC(=O)C(C)(C)C)nc2ccccc21 | inactive: -5.96%
39 | COc1ccc(C(C)C)cc1S(=O)(=O)NCCc1c(C)[nH]c2ccc(C)cc12 | inactive: -29.4%
40 | CCN(C(=O)CSc1nc2ccccc2n1Cc1cc(C)ccc1C)c1ccccc1 | inactive: 0.261%
41 | Cc1c2cnn(CC(=O)NC(C)C)c(=O)c2c(C)n1Cc1ccccc1Cl | inactive: -2.84%
42 | Cc1c2cnn(CC(=O)Nc3cccc(C(F)(F)F)c3)c(=O)c2c(C)n1Cc1ccccc1Cl | inactive: 0.299%

Row | Compound | activity change, negative = cytotoxicity
43 | CCOC(=O)N1CCc2c(sc3c2c(=O)n(-c2ccc(CC)cc2)c(=O)n3CC(=O)c2ccc(F)cc2)C1 | inactive: -3.25%
44 | COc1ccccc1/C=C/c1nc(C#N)c(N(C)C)o1 | inactive: 10.3%
45 | COc1cc(C(=O)Nc2ccc3nc(SCc4ccccc4)sc3c2)cc(OC)c1OC | inactive: 15.8%
46 | COc1ccc(N2CCN(C(=O)c3ccc(-c4nc(COc5ccccc5)c(C)o4)cc3)CC2)cc1 | inactive: 14.1%
47 | CCCNC(=O)C1CCC(Cn2c(=O)c3sccc3n(CC(=O)N3CCC(C)CC3)c2=O)CC1 (stereo unspecified) | inactive: -0.0919%
48 | Cc1cccc(OCC(=O)N(Cc2sccc2C)C2CCS(=O)(=O)C2)c1 (stereo unspecified) | inactive: 5.56%
49 | O=C(Cn1nc(-c2ccc(Cl)cc2)ccc1=O)NCc1ccccc1Cl | inactive: 2.76%
50 | CCOc1ccc(OCC)c(NC(=O)CN(C)S(=O)(=O)c2ccc3c(c2)CCCC(=O)N3)c1 | inactive: -3.7%
51 | COc1cccc(N2CCN(C3C(=O)c4ccccc4N3C(C)=O)CC2)c1 (stereo unspecified) | inactive: 2.27%
52 | COc1cccc(C2C(C(=O)Nc3ccc(C)cc3C)=C(C)Nc3c(C(=O)Nc4cccc(C)c4)cnn32)c1OC (stereo unspecified) | inactive: -14.9%
53 | CCOC(=O)c1cnc2c(C)cc(C)cc2c1NCCN1CCOCC1 | inactive: -20%
54 | O=C(Nc1ccccc1OCc1cc(=O)n2ccccc2n1)Nc1ccccc1C(F)(F)F | inactive: -0.478%
55 | Cc1nc2nc(NCc3ccccc3Cl)[nH]n2c(=O)c1Cc1ccccc1 | inactive: -12%
56 | Cc1ccc(C)c(OCc2nc3ccccc3n2C)c1 | inactive: 2.07%
57 | Cc1ccccc1NC(=O)CSc1nc2c(oc3ccccc32)c(=O)n1Cc1ccco1 | inactive: -2.1%
58 | CCCSC1=NC2(CCN(C(=O)NC3CCCCC3)CC2)N=C1c1ccc(C)cc1 | inactive: -4.17%
59 | COc1ccc(OC)c(CCNC(=O)c2ccc3c(c2)N(Cc2ccccc2)CCS3)c1 | inactive: 3.63%
60 | COC(=O)c1sccc1S(=O)(=O)N1CCN(c2cccc(C)c2)C(C)C1 (stereo unspecified) | inactive: 19.9%
61 | Cc1cccc(N(C)S(=O)(=O)c2nnc(NC(=O)C(C)Oc3ccccc3)s2)c1 (stereo unspecified) | inactive: -17.7%
